# Source: paper PMC4336329 (PLoS ONE, 2015)
# About 14,000 (4.5%) of roughly 310,000 compounds showed an effect of 50% or more. Effects have a minus sign here. The list shows a part of the results.
# Molecular target: human ether-à-go-go-related gene (hERG) potassium channel (human, UniProt Q12809)
# Assay: primary screen, population patch clamp on CHO cells stably expressing hERG
# 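Further: peak tail current of the secondary pulse compared with the same well before compound.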
# Sequence of human ether-à-go-go-related gene (hERG) potassium channel (Q12809 whole entry, looked up): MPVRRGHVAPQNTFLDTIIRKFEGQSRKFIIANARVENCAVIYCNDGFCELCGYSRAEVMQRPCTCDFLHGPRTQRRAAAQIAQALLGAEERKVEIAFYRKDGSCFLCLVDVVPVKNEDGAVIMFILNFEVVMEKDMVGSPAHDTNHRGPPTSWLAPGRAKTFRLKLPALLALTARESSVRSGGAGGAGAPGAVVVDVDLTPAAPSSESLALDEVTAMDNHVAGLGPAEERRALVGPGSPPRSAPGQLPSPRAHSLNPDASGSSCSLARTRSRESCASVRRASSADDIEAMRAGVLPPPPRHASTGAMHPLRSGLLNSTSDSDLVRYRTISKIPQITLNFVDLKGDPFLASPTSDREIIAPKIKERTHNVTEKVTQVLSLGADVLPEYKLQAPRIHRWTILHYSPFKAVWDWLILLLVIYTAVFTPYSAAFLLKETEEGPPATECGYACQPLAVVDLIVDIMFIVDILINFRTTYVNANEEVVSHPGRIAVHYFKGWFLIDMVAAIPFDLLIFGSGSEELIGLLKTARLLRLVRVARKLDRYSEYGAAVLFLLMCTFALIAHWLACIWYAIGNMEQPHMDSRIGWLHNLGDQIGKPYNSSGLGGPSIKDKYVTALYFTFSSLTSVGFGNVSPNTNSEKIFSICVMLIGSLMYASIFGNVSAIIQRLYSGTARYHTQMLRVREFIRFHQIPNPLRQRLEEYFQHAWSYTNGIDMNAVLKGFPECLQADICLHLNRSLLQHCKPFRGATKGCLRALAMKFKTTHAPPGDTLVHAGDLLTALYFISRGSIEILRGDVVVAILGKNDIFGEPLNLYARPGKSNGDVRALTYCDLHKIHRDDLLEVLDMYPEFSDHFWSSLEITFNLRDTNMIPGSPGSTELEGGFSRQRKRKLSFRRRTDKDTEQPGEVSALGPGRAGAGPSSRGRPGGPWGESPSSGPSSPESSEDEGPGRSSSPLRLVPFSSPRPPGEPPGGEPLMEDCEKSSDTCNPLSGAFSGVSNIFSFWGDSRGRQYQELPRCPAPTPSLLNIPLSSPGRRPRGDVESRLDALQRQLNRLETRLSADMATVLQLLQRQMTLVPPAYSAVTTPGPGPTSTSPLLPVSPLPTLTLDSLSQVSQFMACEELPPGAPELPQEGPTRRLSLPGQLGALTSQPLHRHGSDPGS
row,SMILES,"hERG current change (%, negative = inhibition) at 10uM [%]"
1,NC(=O)C(c1ccccc1)C1CCCC1 (stereo not shown),20.4
2,Cc1c(C(=O)N2CCC(N3CCSCC3)CC2)oc2c(F)cccc12,-34.9
3,CCO/N=C(\C)c1c(O)cc(C(C)C)n(-c2ccccc2)c1=O,3.39
4,COc1ccc(CN2CCNC(=O)C2CC(=O)N2CCCCO2)cc1OC (stereo not shown),20.4
5,COc1ccc(OC)c(NC(=S)N2CCc3ccccc3C2)c1,-3.36
6,O=C(NN1C(=O)/C(=C/c2ccc(O)c(O)c2)SC1=S)c1ccccc1,-9.26
7,Nc1nc(NCc2ccco2)nc(N2CCCCCC2)c1[N+](=O)[O-],-23.8
8,Cc1cccc(N2CCN(S(=O)(=O)c3ccc4c(c3)CCCN4C(=O)C3CCC3)CC2)c1C,-12
9,CN(CC(=O)NC1CC1)S(=O)(=O)c1ccc(F)cc1,16.6
10,CCN(Cc1ccccc1)C(=O)c1cccc(OC2CCN(C(=O)C3CC3)CC2)c1,-46
11,CN(C)S(=O)(=O)c1ccc(C(=O)Nc2nnc(SCc3cccc(F)c3)s2)cc1,7.71
12,CC1(C)Cc2ccccc2C2CC(O)C(=O)N21 (stereo not shown),9.13
13,COc1ccc(CCNC(=O)CSc2nc(C)cs2)cc1,-1.06
14,Cn1nc(-c2ccccc2)c(CO)c1Oc1cccc(C(F)(F)F)c1,12.3
15,COC(=O)c1ccccc1NC(=O)N[C@@H](C)C(=O)OC,-2.03
16,O=C(Nc1cccc(NC(=O)c2ccccc2Cl)c1)c1ccco1,1.84
17,COc1ccccc1CCNC(=O)c1nc(-c2cccs2)no1,-12.3
18,Cc1cnc(Nc2nc3ccccc3o2)nc1C(=O)Nc1cccc(C(F)(F)F)c1,-13.8
19,CCN(CC)C(=O)c1sc2nc(N3CCOCC3)c3c(c2c1N)CCCC3,3.98
20,Cc1ccc(S(=O)(=O)N2[C@@H](c3ccccc3)C(C(=O)O)=CC[C@H]2c2cccc(C)c2)cc1,14.1
21,COc1ccc(Nc2cc(Cl)ccc2C(=O)O)cn1,12.6
22,CN(C)CC1CSCCC1(O)c1ccc(C(F)(F)F)cc1.Cl (stereo not shown),8.26

row,SMILES,"hERG current change (%, negative = inhibition) at 10uM [%]"
1,CC(C)(C)n1nnnc1C(c1cc2cc3c(cc2[nH]c1=O)OCCO3)N1CCSCC1 (stereo not shown),-10.6
2,COC(=O)c1ccc(CNC(=O)/C=C/c2cc([N+](=O)[O-])ccc2OC(F)F)cc1,6.89
3,N#CCCCCN1CCCC1,4.2
4,CC(=O)Nc1ccc(Sc2ccccc2C(=O)O)c(C(=O)O)c1,19.4
5,Cc1ccc(NC2CCCN(C(=O)c3ccccc3-c3ncc[nH]3)C2)cc1C (stereo not shown),7.65
6,CC(=O)CC(=O)Nc1ccn(-c2ccccc2)n1,-0.191
7,COc1cccc(-c2c(C(=O)N/N=C(\C)c3ccncc3)nnn2-c2nonc2N)c1,-22
8,O=c1cc(CN2CCOCC2)c2cc(Cl)c(O)cc2o1,-15.7
9,Cc1ccc(-c2nc3c4ccccc4ccn3c2CN2CCCCC2)cc1.Cl,-3.77
10,CC(=O)Nc1cc(-c2ccccc2)nn1Cc1ccc(Cl)cc1,14.9
11,Cc1onc(-c2ccccc2Cl)c1C(=O)OCC(=O)c1c(N)n(C)c(=O)n(C)c1=O,-9.6
12,COc1cccc(Cn2c(=O)sc3ccccc3c2=O)c1,-9.92
13,Cc1cccc(NC(=O)CCN2CCC(C)CC2)c1,-8.23
14,CC(C)c1ccc(/C=C2\SC(=S)N(CCC(=O)NCCCn3ccnc3)C2=O)cc1,-17.3
15,COc1ccc([C@@H]2[C@@H]3C(=O)N(C(C)(C)C)C(=O)[C@@H]3[C@]3(Cc4ccc(Cl)cc4)C(=O)N(c4ccc(C)cc4)C(=O)N23)cc1,9.38
16,COc1cc(NC(=O)/C=C/c2ccccc2)c(C(=O)O)cc1OC,6.63
17,CCCCCC1CC(CC(=O)Nc2ccc([N+](=O)[O-])cc2)OC1=O (stereo not shown),-53.1
18,COCc1nc2oc3ccc(C)cc3c(=O)c2cc1C(=O)OC,14.7
19,COc1ccc(-n2c(CN3CCN(C)CC3)nc3ccc([N+](=O)[O-])cc3c2=O)c(OC)c1,-38.4
20,COc1ccc(/C=C2\C(=O)N(c3c(Cl)cc(Cl)cc3Cl)N=C2NC(=O)c2cccc([N+](=O)[O-])c2)cc1,6.99
21,CCC(C)c1ccccc1NC(=O)c1cc2cccc([N+](=O)[O-])c2[nH]1 (stereo not shown),-5.8
22,Cc1cccc2cc(/C=C3\N=C(c4ccccc4)OC3=O)c(N3CCOCC3)nc12,-5.69

row,SMILES,"hERG current change (%, negative = inhibition) at 10uM [%]"
1,Cc1ccc(NC2CCCN(C(=O)c3ccc4[nH]ccc4c3)C2)cc1C (stereo not shown),6.01
2,COCC(C)NC(=O)c1ccc(CN2CCc3ccccc3C2)cc1 (stereo not shown),9.43
3,CCC(=O)N(Cc1cc2ccc(C)cc2n2nnnc12)C1CCCCC1,-32.3
4,COc1ccccc1-c1noc(-c2ccccc2C(=O)Nc2ccccc2)n1,13.9
5,O=C(NCCN1CCOCC1)c1noc2c1CCc1ccccc1-2,-16.8
6,CCOc1c(Cl)cc(C(=O)Nc2cccc(C(=O)O)c2)cc1Cl,24.6
7,CSc1cccc(NC(=O)COc2ccccc2C)c1,12.4
8,Cc1cc(OCC(=O)C(C)(C)C)c2c(C)c(C)c(=O)oc2c1,14.8
9,CCN1CC(CN(C)Cc2nc(-c3ccc(C(F)(F)F)cc3)oc2C)CC1=O (stereo not shown),-51.5
10,Cc1cnnn1-c1ccc([N+](=O)[O-])cc1,23.5
11,CC(C)(C)NC(=O)c1ccc2c(c1)C(=O)N(C1CCCCC1)C2=O,-22.7
12,Cc1ccc2[nH]c3c(c2c1)CN(C(=O)CN1CC(C)OC(C)C1)CC3 (stereo not shown),4.51
13,CSc1nnc(SCC#N)s1,8.95
14,CC(C)=CCN1CCN(Cc2ccoc2)CC1CCO (stereo not shown),14.2
15,COc1cccc(NC(=O)CN(C)CC(=O)NCc2ccc3c(c2)OCO3)c1,-21.2
16,O=C(CCS(=O)(=O)c1ccccc1Cl)NCc1ccc(F)cc1,-25.6
17,Cc1nc2sc(C(c3ccco3)N3CCN(c4ccccc4F)CC3)c(O)n2n1 (stereo not shown),0.233
18,CCOC(=O)c1c(-c2ccccc2)csc1NC(=O)c1nn(CC)cc1Br,6.4
19,COCCNC(=O)CN1C(=O)COc2ccc(S(=O)(=O)N3CCCCCC3)cc21,20.3
20,Cc1ccc(OCC(=O)Nc2ccc3c4c(cccc24)CC3)c(C)c1,10.4
21,CCC(C(=O)NC1CCCC1)n1c(SCc2cccc(C)c2)nc2ccncc21 (stereo not shown),-19.7
22,COCCCNC(=O)CC(C)c1ccccc1 (stereo not shown),11.2

row,SMILES,"hERG current change (%, negative = inhibition) at 10uM [%]"
1,CC(C)(C)c1cc(C(=O)Nc2cccc3ccccc23)ccn1,-8.18
2,CC(=O)Nc1ccc(NC(=O)COc2cc(C)cc3oc(=O)cc(C)c23)cc1,22.7
3,O=C(NC1CCCC1)C1CCCN(S(=O)(=O)c2cccc3cccnc23)C1 (stereo not shown),1.27
4,O=c1[nH]c(CSc2nnc(-c3ccncc3)n2Cc2ccco2)nc2ccccc12,-58.2
5,CCOC(=O)N1CCN(C(=O)c2cnc3n(c2=O)CCS3)CC1,7.34
6,CC(=O)c1ccc(OCc2cc(C(=O)N3CCC(Oc4ccccc4C)CC3)no2)cc1,6.69
7,CCOc1ccc2ccccc2c1C(=O)N[C@@H]1C(=O)N2[C@@H]1SC(C)(C)[C@@H]2C(=O)[O-].O.[Na+],23.7
8,O=c1cnn(Cc2c(Cl)cccc2Cl)c2ccccc12,-5.93
9,CCc1ccc(OCC(=O)Nc2cc(S(=O)(=O)CC)ccc2O)cc1,-0.287
10,Cc1cccc2c(C(=O)O)c3cccc(C)c3nc12,1.39
11,CCC(=NCCCn1ccnc1)c1c(O)n(Cc2ccccc2)c(=O)[nH]c1=O,-68
12,Cc1cc(C)c(S(=O)(=O)c2c(C)cccc2C)c(OCC(C)C)n1,2.76
13,Cn1c2c(c(=O)n(C)c1=O)C(NC(=O)c1ccco1)(C(F)(F)F)C(=O)N2 (stereo not shown),16.3
14,CC(C)NC(=O)CN(Cc1ccccc1)S(=O)(=O)c1ccccc1,-2.13
15,O=C(COC(=O)c1ccccc1-n1cnnn1)c1ccc(Br)cc1,4.53
16,CCCCC1NC(C(=O)O)CS1 (stereo not shown),12.9
17,COc1ccc([C@H]2CC(=O)C=C(c3ccc4cc[nH]c4c3)C2)cc1,-14.2
18,CN(C)C(=O)Oc1ccc2nnc3ccnn3c2c1,1.04
19,Cc1ccc(C)c(NC(=O)CSc2nnc(-c3ccncc3)o2)c1,7.04
20,COc1cccc(/C=C/C(=O)NCc2cn3cc(Cl)ccc3n2)c1OC,34.4
21,CC1Sc2ccc(C(=O)Nc3ncccc3O)cc2NC1=O (stereo not shown),-6.83
22,Cc1ccc(C(C(=O)NC2CCCCC2)N(C(=O)Cc2c[nH]c3ccccc23)c2ccccc2C)o1 (stereo not shown),20.2
